# Measurements published in PubChem BioAssay AID1030 (National Center for Advancing Translational Sciences (NCATS), 2008).
# Where “and” joins values, the source holds several entries; their conditions need not be identical. Equal values may be shown once. In all, about 220,000 compounds went through this assay and about 16,000 (7.3%) were called active. Inconclusive means that the source gave no clear call. Such entries were picked first, then a sample of the others. Calls follow the shape of the dose curve; as a rule, active = well fitted inhibition curve with a large enough effect (not every such curve was filed as active); inconclusive = small, poorly fitted or top-dose-only effect, or another doubt; inactive = no such curve, though single readings can be large or run the other way. Potencies beside an inconclusive call are fits to weak or partial responses and may not hold up.
# Target: Aldehyde dehydrogenase 1A1 (Homo sapiens) (UniProt P00352)
# Assay: qHTS Assay for Inhibitors of Aldehyde Dehydrogenase 1 (ALDH1A1);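 as to activity, negative = inhibition: plate controls were no enzyme wells and a reference inhibitor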
# Conditions: Purified ALDH1A1, NADH fluorescence, propionaldehyde substrate; series mostly up to 75.3 µM; activity, negative = inhibition: at the top concentration
# Potency is read from the fitted curve at half-maximal effect; tags tell the direction and shape of the fitted curve.
# Chain of UniProt P00352 (P00352 whole entry, looked up): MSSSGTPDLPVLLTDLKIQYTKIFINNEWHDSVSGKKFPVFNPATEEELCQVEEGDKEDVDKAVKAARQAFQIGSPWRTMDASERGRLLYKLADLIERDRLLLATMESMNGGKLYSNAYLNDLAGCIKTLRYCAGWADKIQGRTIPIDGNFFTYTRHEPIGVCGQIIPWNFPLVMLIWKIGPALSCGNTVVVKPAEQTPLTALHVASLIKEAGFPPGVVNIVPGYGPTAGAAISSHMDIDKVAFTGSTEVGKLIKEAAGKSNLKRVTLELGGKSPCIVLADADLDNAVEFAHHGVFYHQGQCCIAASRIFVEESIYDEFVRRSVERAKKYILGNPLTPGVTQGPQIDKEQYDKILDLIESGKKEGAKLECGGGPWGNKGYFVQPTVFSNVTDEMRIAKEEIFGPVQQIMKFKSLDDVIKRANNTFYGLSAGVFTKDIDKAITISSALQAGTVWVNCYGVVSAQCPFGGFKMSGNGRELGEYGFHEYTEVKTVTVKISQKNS
SMILES,Potency,"activity, negative = inhibition"
CCOC(=O)C1(CCOc2ccccc2)CCN(Cc2ccc3c(c2)OCCO3)CC1,"inconclusive: 35.5 µM [inhibitor, single point]",–
S=C(Nc1ccc(Cl)cc1Cl)Nn1cnnc1,–,inactive: 4.5%
COC(=O)c1sc(S(=O)(=O)NCCC(=O)O)c(C(=O)OC)c1C,–,inactive: -4.4%
CCCCSc1[nH]c(=O)c(C(=O)OCC)cc1C#N,"inconclusive: 15.8 µM [inhibitor, partial curve]",–
CC(=O)NNc1cc(N2CCOCC2)nc(N2CCOCC2)n1,"inconclusive: 39.8 µM [inhibitor, partial curve]",–
CC(C)(C)NC(=O)c1cccc(NC(=O)c2ccc(NC(=O)c3ccco3)cc2)c1,–,inactive: -13.4%
Cn1c(-c2ccc(Cl)cc2)ccc(C#N)c1=O,"inconclusive: 35.5 µM [inhibitor, partial curve]",–
Cc1ccc(-c2nnn(CC(=O)Nc3ccc4nn(-c5ccccc5)nc4c3)n2)o1,"inconclusive: 39.8 µM [inhibitor, single point]",–
Cc1ccc(-n2ncc3c(NCc4cccnc4)ncnc32)c(C)c1,"inconclusive: 35.5 µM [inhibitor, single point]",–
COC(=O)[C@@]1(Cc2ccccc2)C=C[C@@H](C)N1C(=O)c1ccccc1,active: 39.8 µM,–
O=C(NC(=S)NNC(=O)c1cc2ccccc2cc1O)c1ccco1,"inconclusive: 25.1 µM [inhibitor, single point]",–
O=C(c1ccc(CSc2nc3ccncc3[nH]2)cc1)N1CCN(c2cccc(Cl)c2)CC1,"inconclusive: 44.7 µM [inhibitor, single point]",–
CCc1ccccc1NC(=O)c1cnc2n(c1=O)CCS2,"inconclusive: 35.5 µM [inhibitor, single point]",–
Cc1ccc(C(=O)N2CCN(c3ccc(NC(=O)COc4ccccc4C)cc3)CC2)cc1,"inconclusive: 25.1 µM [inhibitor, single point]",–
CN(C)C1NC(=O)c2cc(-c3ccccc3)sc2N1 (stereo unspecified),"inconclusive: 39.8 µM [inhibitor, partial curve, poor fit]",–
CC(=O)C(Cl)C(=O)Nc1ccccc1 (stereo unspecified),active: 1.26 µM,–
CCn1cc([N+](=O)[O-])c(C(=O)N2CCN(C(=O)c3ccco3)CC2)n1,"inconclusive: 25.1 µM [inhibitor, single point]",–
CCN(CC)S(=O)(=O)c1ccc(-n2cnnn2)c(C)c1,"inconclusive: 39.8 µM [inhibitor, single point]",–
CN(C)/C=C/C(=O)c1ccc(N2CCN(c3ncc(C(F)(F)F)cc3Cl)CC2)cc1,"inconclusive: 39.8 µM [inhibitor, single point]",–
CCOc1ccc(C(C)=O)cc1CN1C(=O)NC2(CCCCCCC2)C1=O,"inconclusive: 17.8 µM [inhibitor, partial curve]",–
CC(OC(=O)c1ccccc1NCc1ccco1)C(=O)Nc1ncc(Cl)cc1Cl (stereo unspecified),"inconclusive: 25.1 µM [inhibitor, partial curve]",–
COc1ccc(NC(=O)C(NC(=O)CC2NC(=O)NC2=O)c2ccccc2)cc1 (stereo unspecified),–,inactive: 7.72%
c1ccc(-c2noc(CSc3nnnn3-c3ccccc3)n2)cc1,active: 11.2 µM,–
CCN(CC)C(=S)SC1CCCCN(C(=O)c2ccccc2)C1=O (stereo unspecified),"inconclusive: 39.8 µM [inhibitor, single point]",–

SMILES,Potency,"activity, negative = inhibition"
Cc1ccc(NC(=O)CCSc2nnc3ccccn23)cc1,"inconclusive: 35.5 µM [inhibitor, single point]",–
COc1ccc(OC)c(NC(=O)NC2(C(F)(F)F)Oc3ccccc3O2)c1,active: 7.08 µM,–
CCN(c1ccccc1)c1cc(C)nc2nc(C)nn12,–,inactive: 3.66%
CCOc1ccc(NC(=O)CNc2ccc(C)cc2Cl)cc1,–,inactive: 3.41%
CC(C)n1c(SCC(=O)Nc2ccccc2)nc2c1c(=O)n(C)c(=O)n2C,–,inactive: 0.636%
Cc1ccc(-n2c3c(cc(C(=O)NCCCN4CCOCC4)c2=O)C(=O)CC(C)(C)C3)cc1,"inconclusive: 14.1 µM [inhibitor, partial curve]",–
COc1ccc2c(OC)c3ccoc3nc2c1OC,"inconclusive: 10 µM [inhibitor, partial curve] and inconclusive: 31.6 µM [inhibitor, partial curve] and inconclusive: 28.2 µM [inhibitor, partial curve]",–
Nc1nc2c(s1)C(=O)CC(c1ccccc1)C2 (stereo unspecified),"inconclusive: 39.8 µM [inhibitor, single point]",–
CCOC(=O)C1C(c2ccc(O)c(OC)c2)NC(=S)NC1(O)C(F)(F)F (stereo unspecified),"inconclusive: 39.8 µM [inhibitor, single point]",–
CC(C)c1ccc(O)c(NC(=S)NC(=O)CCc2ccccc2)c1,"inconclusive: 8.91 µM [inhibitor, partial curve]",–
NC(=O)SCC(=O)Nc1ccc2ncccc2c1,"inconclusive: 3.16 µM [inhibitor, partial curve]",–
CC1(C)CC(=O)C2=C(C1)OC(/N=C/N1CCOCC1)=C(C#N)C2c1ccccc1 (stereo unspecified),"inconclusive: 39.8 µM [inhibitor, single point]",–
CCOC(=O)c1[nH]c2ccccc2c1NC(=O)CCN1CCN(C(=O)OCC)CC1,"inconclusive: 39.8 µM [inhibitor, single point]",–
CCOc1ccc(Nc2ncnc3ccc([N+](=O)[O-])cc23)cc1,"inconclusive: 15.8 µM [inhibitor, partial curve]",–
COc1cccc(NC(=S)N(CCCN2CCOCC2)Cc2cn(C)c3ccccc23)c1,"inconclusive: 39.8 µM [inhibitor, single point]",–
O=C(O)C1CCC(N2C(=O)C3CCCCC3C2=O)CC1 (stereo unspecified),–,inactive: 3.73%
Cn1cccc1Cc1nnc(SCC(=O)Nc2ccc3c(c2)OCO3)n1CCc1ccccc1,"inconclusive: 22.4 µM [inhibitor, partial curve]",–
CC(=O)c1c(C)cc(C)c(CSc2nc(C)cc(=O)[nH]2)c1C,–,inactive: -14.5%
Fc1ccccc1-c1[nH]ncc1-c1nnnn1-c1ccccc1,"inconclusive: 31.6 µM [inhibitor, partial curve]",–
Oc1ccc(N=Nc2cccc(Cl)c2)cc1C=Nc1ccc(N2CCOCC2)cc1,"inconclusive: 12.6 µM [inhibitor, partial curve]",–
CC12C=CC3(O1)C(C(=O)N1CCCOC13)C2C(=O)O (stereo unspecified),–,inactive: 4.32%
O=C(NCCc1cccc(Cl)c1)c1cccs1,–,inactive: -7.4%
COC(=O)c1ccc(/C=C/c2ccc3cccc(OC)c3n2)cc1,"inconclusive: 28.2 µM [inhibitor, partial curve]",–
CCOC(=O)N1CCN(C(=O)c2ccc3c(c2)sc2nc(-c4ccccc4)cn23)CC1,"inconclusive: 28.2 µM [inhibitor, partial curve]",–

SMILES,Potency,"activity, negative = inhibition"
CCOC(=O)c1noc(C)c1C(=O)Nc1nc(C)cc(C)n1,active: 20 µM,–
CSc1nnc(CNC(=O)C23CC4CC(CC(C4)C2)C3)n1Cc1ccccc1,–,inactive: -10%
NC(=O)NNc1ncc(C(F)(F)F)cc1Cl,"inconclusive: 37.7 µM [inhibitor, single point]",–
COc1ccc2cc(CN(Cc3cccs3)Cc3nnnn3Cc3ccccc3)c(=O)[nH]c2c1,active: 2 µM,–
Cc1ccc(CNCC(=O)Nc2ccc(N3CCOCC3)cc2)cc1,"inconclusive: 20 µM [inhibitor, partial curve]",–
CC(/C=N/NC(=O)Cc1cccn1C)=C\c1ccco1,active: 14.1 µM,–
Cc1nc2ccccc2nc1SCC(=O)N1CCC(C)CC1,"inconclusive: 28.2 µM [inhibitor, single point]",–
CC(=O)Oc1ccccc1C1=NN(C(C)=O)C(c2ccccc2)C1 (stereo unspecified),–,inactive: -3.23%
O=C(N1CCN=C1SCc1cccnc1)C12CC3CC(CC(C3)C1)C2,"inconclusive: 28.2 µM [inhibitor, partial curve, poor fit]",–
C=CCN1CCN(C(c2ccccc2OC)c2nnnn2C(C)(C)C)CC1 (stereo unspecified),"inconclusive: 8.91 µM [inhibitor, single point]",–
CC(=O)Nc1sc2c(c1C(c1ccncc1)N1CCOCC1)CCCC2 (stereo unspecified),active: 25.1 µM,–
CC(=O)c1ccc(OCCCC(=O)Nc2ccc(C)c(S(=O)(=O)N(C)C)c2)cc1,"inconclusive: 39.8 µM [inhibitor, single point]",–
Clc1ccc(/C=C/c2nc3ccccc3[nH]2)cc1,"inconclusive: 25.1 µM [inhibitor, partial curve]",–
CCCOc1ccc(-c2cc(C(=O)NCC3CCCO3)c3ccccc3n2)cc1 (stereo unspecified),"inconclusive: 35.5 µM [inhibitor, single point]",–
CNC(=O)CSc1nnc(C(C)C)n1C,–,inactive: 1.4%
Cc1ccn2cc(-c3ccc(NS(=O)(=O)c4ccccc4)cc3)nc2c1,–,inactive: -4.81%
C=CCOc1c(Br)cc(/C=N/Nc2ccc(C(=O)O)cc2)cc1OCC,–,inactive: -9.96%
O=C(Nc1ccn(Cc2ccccc2)n1)c1n[nH]c([N+](=O)[O-])c1Cl,–,inactive: -1.46%
c1ccc(C(c2nnnn2C2CCCCC2)N2CCc3ccccc3C2)nc1 (stereo unspecified),"inconclusive: 23.8 µM [inhibitor, partial curve]",–
COc1ccc(C2CC(c3cccs3)=NN2c2ccc(F)cc2)cc1OC (stereo unspecified),"inconclusive: 20 µM [inhibitor, partial curve]",–
CC(NC(=O)C1CCN(S(=O)(=O)c2cc([N+](=O)[O-])ccc2Cl)CC1)c1ccccc1 (stereo unspecified),"inconclusive: 31.6 µM [inhibitor, single point]",–
CCN(CC)S(=O)(=O)c1ccc2c3c(cccc13)C(=O)S2,"inconclusive: 28.2 µM [inhibitor, partial curve]",–
CCOC(=O)C1=C(c2ccccc2)NC(SCC(=O)Nc2ccccc2C)=C(C#N)C1c1ccco1 (stereo unspecified),active: 14.1 µM,–
